A number of entries come with more than one value. They are shown here; other results are not. There may be further records. Values that stand side by side seem to repeat one measurement; one of them may be the mean.
Tests used:
[1] = target: HRgpA-6H (Porphyromonas gingivalis) (UniProt P28784); assay: ELISA, FASEBA screening, coated HRgpA-6H 0.0625 ug/ml
[2] = target: HRgpA-6H (Porphyromonas gingivalis) (UniProt P28784); assay: ELISA, FASEBA screening, coated HRgpA-6H; variant OD over parental WT Fab OD

Sequence of UniProt P28784 (P28784 228-860): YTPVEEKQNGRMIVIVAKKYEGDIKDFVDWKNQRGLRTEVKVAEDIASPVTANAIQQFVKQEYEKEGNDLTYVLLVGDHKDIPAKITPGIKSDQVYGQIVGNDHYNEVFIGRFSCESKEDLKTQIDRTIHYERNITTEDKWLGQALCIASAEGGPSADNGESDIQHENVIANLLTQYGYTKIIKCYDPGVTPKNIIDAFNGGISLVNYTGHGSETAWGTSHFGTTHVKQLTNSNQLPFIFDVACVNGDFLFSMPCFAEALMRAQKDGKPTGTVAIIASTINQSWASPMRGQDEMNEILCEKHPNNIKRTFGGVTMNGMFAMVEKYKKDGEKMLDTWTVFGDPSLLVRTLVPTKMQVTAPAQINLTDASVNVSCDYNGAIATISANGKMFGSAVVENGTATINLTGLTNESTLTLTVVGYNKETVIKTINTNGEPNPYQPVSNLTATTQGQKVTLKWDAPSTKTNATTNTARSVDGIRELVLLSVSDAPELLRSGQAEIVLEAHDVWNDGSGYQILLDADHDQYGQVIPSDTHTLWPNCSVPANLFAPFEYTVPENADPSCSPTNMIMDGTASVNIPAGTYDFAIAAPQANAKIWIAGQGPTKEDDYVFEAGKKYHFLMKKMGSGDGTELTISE

B1: KB001 parental mouse Fab FASEBA variant VH Y106E (Fab, V domains shown)
VH: EVQLKQSGPGLVAPSQSLSITCTVSGFSLSIYSVHWVRQPPGKGLEWLGMIWGGGSSDYNSALKSRLSISKDNSKSQVFLKMNSLQTDDTAMYYCARNGNFYAMDEWGQGTSVTVSS
VL: QIVLTQSPAIMSASLGERVTMTCTASSSVSSSFLHWYQQKPGSSPQLWIYSTSNLASGVPARFSGSGSGTSYSLTISSMEAEDAATYYCHQYHHSPYIYTFGGGTKLEIK
For B1, the OD450 nm [1] was 0.687, 0.705, 0.721, 0.686 [lines of one column] and the Ratio OD(Variant)/OD(WT) [2] was 0.893, 0.917, 0.938, 0.892 [lines of one column].

— patent publication US20240400654A1
